Out of some 150,000 compounds screened, about 540 (0.36%) showed an effect of 50% or more. The list shows a part of the results.
The compounds below were run on Plasmodium falciparum (assay: Primary screen in NF54 nanoGlo assay, in single point, at 2uM, 72h; a lower Z score goes with more inhibition). Settings: timepoint 72 hour.
Type: functional, Erythrocyte

Compound | % Inhibition [%] | Z score
COc1ccc(NC(=O)NC(C(F)(F)F)C(F)(F)F)cc1 | -7 | 1
CCN1CC2(CCN(c3cc(N)nc(N)n3)CC2)C[C@@H](c2ccccc2)C1=O | -15 | 1.4
CCS(=O)(=O)C[C@H](C)N(C)c1ccc(C(F)(F)F)nn1 | -10 | 2
CNC(=O)[C@@H](NC(=O)c1c(F)cccc1F)C(C)(C)C | 1 | -0.2
OCC1(CCCc2ccccc2)CCN(Cc2ccc(O)c(Cl)c2)CC1 | -14 | 1.79
C[C@]1(C(=O)Nc2nc(C(N)=O)cs2)CC1(Cl)Cl | -13 | 1.45
Cc1nn(CC(N)=O)c(C)c1-c1ccc2[nH]ccc2c1 | -14 | 1.91
O=S(=O)(c1ccc(-c2ccc(Br)cc2)cc1)N1CCCCC1 | 3 | -0.39
Cc1cc(NC(=O)Cn2ncn(C)c2=O)no1 | -2 | 0.22
Cc1cc(C(=O)Nc2nc(-c3ccc(Oc4ccccc4)cc3)cs2)on1 | -1 | 0.25
CC(=O)c1ccc(C#N)c(N2CCC[C@H](c3nc(C)no3)C2)c1 | -13 | 1.19
CO[C@@H](C)CS(=O)(=O)Nc1cc(C#N)cc(C)n1 | -4 | 0.73
Cc1cc(-c2ccccc2)cc(-c2ccccc2)c1-c1cc(-c2ccccc2)cc(-c2ccccc2)n1 | 40 | -5.16
CCc1noc(C)c1C(=O)N1CCO[C@H](c2nnnn2CCOC)C1 | -5 | 0.94
Cn1cnc2c(NCc3ccc(C(N)=O)o3)ncnc21 | -6 | 1.08
O=C(NCc1ccncc1)c1ccc(CN2CCN(c3ccccc3)CC2)o1 | -15 | 1.77
O=C(Nc1ccc(N2CCCN(Cc3cccc(Cl)c3F)C2=O)cc1)c1ccc(F)cc1 | -14 | 2.02
N#Cc1ccccc1-c1ccc(CN2CCN(c3ncc(F)cn3)CC2)o1 | 5 | -0.63
CC(=O)N1CC2=Nc3cccc4[nH]cc(c34)[C@H](c3ccc(O)cc3)C2=C1O | 1 | -0.15
CN(C)C[C@]1(O)CCCN(C(=O)c2sccc2Cl)CC1 | -7 | 1.36
Cc1ccc(N(C)C(=O)[C@@H]2CCC(=O)N2S(=O)(=O)c2ccc(C)cc2)cc1 | -12 | 1.68
Cc1nnsc1C(=O)N1C[C@@H]2CC[C@H]1CN(C(=O)C1CCC1)C2 | -3 | 0.56

Compound | % Inhibition [%] | Z score
COC(CN1CCC[C@H](NC(=O)c2ccc3ccccc3c2)C1)OC | -6 | 0.87
Cc1ccc2sc(-c3nc4c([nH]3)CCNC4)cc2c1 | 2 | -0.39
COc1ccc(Cl)cc1C(=O)Nc1ccc2c(c1)C(=O)NCCO2 | 20 | -3.7
COc1ccc2c(c1)CCC[C@@]2(O)CNC(=O)c1cc(C)oc1C | -14 | 1.73
O=C(c1ccco1)N(Cc1ccccc1Br)c1ccccc1Br | -3 | 0.55
Nc1nnc(Cc2ccc3c(c2)OCCO3)o1 | -13 | 1.86
CCOc1ccc(S(=O)(=O)N2CCC(n3ccnn3)CC2)cc1 | -10 | 1.49
CC(C)CN(CC(N)=O)S(=O)(=O)c1ccc(Br)cc1Br | -12 | 2.34
O=C(NC(=O)c1cnn([C@H]2CCS(=O)(=O)C2)c1)Nc1ccccc1 | -10 | 1.18
O=C(NCC1CCCCC1)C1CCN(S(=O)(=O)c2ccc(-c3ccn[nH]3)o2)CC1 | 0 | -0.03
Cc1cnc(CN(CC(N)=O)C(C)C)o1 | -6 | 1.19
CCC[C@H](C)c1nc(C)nn1-c1cccc(C)n1 | -8 | 1.59
O=C(NCCc1ccccn1)c1ncoc1C(F)(F)F | 5 | -0.67
CCCn1ncc(C(=O)N2CCC[C@H](c3nc(=O)[nH][nH]3)C2)c1C1CC1 | 0 | 0.06
CC(C)Oc1ccc2nnc(CCC(=O)Nc3nncs3)n2n1 | -14 | 1.77
Cc1ccc(Nc2ccn(-c3nc(-c4ccccc4)sc3-c3ccccc3)c(=O)n2)cc1 | -11 | 1.21
CCOC(=O)C(C)(C)N(C)Cc1ccccc1C#N | -5 | 0.46
Cc1noc(C)c1CO[C@H]1COCC[C@@H]1NC(=O)C1CCC1 | -15 | 2.87
COc1cccc([C@H](C)NC(=O)C2CCN(c3cc(-c4cccc(C)c4)ncn3)CC2)c1 | -10 | 1.61
COC1(C)CCN(S(=O)(=O)c2cccnc2C#N)CC1 | 8 | -0.92
COc1ccc([C@H]2OCC[C@@H]2NC(=O)Nc2ccc(OC)c3cccnc23)cn1 | -5 | 0.76
O=C(COc1ccccc1O)N1CCn2cncc2C1 | -16 | 1.59

Compound | % Inhibition [%] | Z score
CCc1oc(C(=O)N2CCCNCC2)cc1C | -9 | 0.96
CCCN(Cc1nc(C(C)(C)C)no1)S(=O)(=O)N1CCCCC1 | -13 | 1.61
CC[C@H](CNC(=O)c1cnc2ccccn2c1=O)Cc1ccccc1 | -14 | 2.87
O=C(NCc1ccccc1)NC[C@H](c1ccc(F)cc1)c1c[nH]c2ccccc12 | -5 | 0.87
N#Cc1cn[nH]c1NC(=O)C(=O)NC1Cc2ccccc2C1 | -11 | 1.64
Cc1nc(C(=O)Nc2[nH]c(=O)ncc2F)c(-c2ccccc2)o1 | 80 | -7.61
Cn1ccc2c(-c3cc(N)nc(N4CCCC4)n3)ccnc21 | 11 | -1.46
Cc1nc(-c2ccc(S(=O)(=O)N3CCCCC3)cc2)cs1 | -10 | 1.18
COc1ccc(CN2Cc3nc(C)[nH]c(=O)c3C2)c(C)c1C | 3 | -0.51
Cc1cc(-c2cccc(C(=O)N[C@H]3CCCNC3=O)c2)ccc1Cl | -9 | 1.77
CCc1ccc(CN2CC(O)(CC#N)C2)cc1 | 8 | -1.45
O=C1NC(=O)C2(CCCC2CNC(=O)c2ccncc2Br)N1 (stereo not given) | -19 | 3.53
Cc1cc(C)nc(-n2cnc3ccccc32)n1 | -1 | 0.21
CC(C)CCn1c(=O)c2ccccc2n(CC(=O)N(C)c2cccc(Cl)c2)c1=O | 6 | -0.88
O=C(Cc1cccnc1)N[C@H]1CC(=O)N(Cc2cccc(F)c2)C1 | -9 | 1.76
COc1ccc(NC(=O)C2CCC(Cn3cnnn3)CC2)cc1Cl (stereo not given) | -14 | 1.76
Fc1cnc(N2CCOCC2)nc1N1CCOCC1 | -8 | 1.41
COc1ccc(CN2C[C@H]3CN(S(C)(=O)=O)CCN3C2=O)cc1 | -6 | 0.91
Cc1ccc(S(=O)(=O)c2ncccc2CNCCCO)cc1 | 2 | -0.19
c1ccc(COCc2n[nH]c3c2CN(Cc2cnn4cccnc24)CC3)cc1 | -10 | 1.85
N[C@H]1CCN(C(=O)NCc2ccc(Cl)cc2Cl)C1 | -10 | 0.95
COc1ccnc(N2CC[C@@H](Oc3ccncc3)C2)n1 | -7 | 0.8

Compound | % Inhibition [%] | Z score
CC(CC(=O)N(CC(=O)N1c2ccccc2-n2cccc2C1c1cccc(Cl)c1)C1CC1)CC(C)(C)C (stereo not given) | -5 | 1.02
Cc1cc(C(=O)N(C)[C@@H](C)c2nccs2)nc(C)n1 | 1 | -0.21
Cc1ocnc1C(=O)N1CCC(C(=O)N2CCCC2)CC1 | -19 | 2.66
C[C@H]1CN(CC(=O)Nc2nc3ccc(F)cc3s2)CCO1 | -10 | 1.58
COc1cc(C(=O)N2C[C@]3(C)C[C@H]2CC(C)(C)C3)ccc1OC1CCN(C(C)=O)CC1 | -12 | 1.14
CCNC(=O)N1CCN(c2nc(C3CC3)nc3c2cnn3-c2ccc(OC)cc2)CC1 | -8 | 1.03
Cc1noc([C@@H]2CCCCCN2C(=O)COc2ccccc2)n1 | -6 | 1.24
CC1CN(C(=O)c2cn(Cc3ccccc3)nc2-c2ccccc2)C1 | 1 | -0.11
Cc1ccccc1OC[C@H](O)C(=O)N1CCC2(CC1)C(=O)N(C)C(=O)N2C | 0 | 0.05
Cc1cc(CNC(=O)C(=O)NCC(F)(F)F)c(C)o1 | 8 | -1.04
CCn1cc(Br)cc1C(=O)NCC1(N2CCCCC2)CCN(C)CC1 | 2 | -0.35
O=C1N(CC2CCCCC2)CCC[C@@]12CCN(Cc1ccncc1)C2 | -15 | 1.32
O=C(N[C@H]1C[C@@](CO)(c2ccccc2)C1)c1cccc(C#CCO)c1 | -6 | 0.67
COCCNC(=O)c1cnc(-c2cc(OC)c(OC)c(OC)c2)nc1N(C)C1CCCCC1 | -1 | 0.23
C[C@H]1Cc2ccccc2N1CCNc1nc2ccccc2o1 | -6 | 0.82
COc1ccc(C)cc1S(=O)(=O)C1CS(=O)(=O)CC1NCCCc1ccccc1 (stereo not given) | -1 | 0.15
Cn1cc(C(=O)N[C@H]2CC3(CCCCC3)Oc3ccccc32)ccc1=O | -5 | 0.8
COc1ccc2c(=O)c(C(=O)c3ccncc3)cn(CC(=O)NCc3ccccc3Cl)c2c1 | -14 | 1.8
O=C(NCc1ccccn1)c1cc(-c2cccc3ccccc23)[nH]n1 | 31 | -3.56

From ChEMBL document CHEMBL4888484, “Replenishing the malaria drug discovery pipeline: Screening and hit evaluation of the MMV Hit Generation Library 1 (HGL1) against asexual blood stage Plasmodium falciparum ,using a nano luciferase reporter read-out” (2022)
